Measurements as given in the supplement of paper PMC8728848.
The list shows a part of the results.

How the values were obtained:
Experiment in all cases: glycan array binding signal (z-score within array); higher = stronger binding
Conditions in all cases: glycan notation: IUPAC condensed, linker removed
[1] = target: Fuc(a1-2)Gal(b1-4)GlcNAc(b1-3)Gal(b1-4)GlcNAc(b1-3)Gal(b1-4)GlcNAc
Procedure, shortened: (§1)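 Glycan array data came from 3228 arrays in the Consortium for Functional Glycomics database, and only arrays with an available protein sequence were kept. Glycan names were put into IUPAC-condensed notation, and columns mapping to the same glycan were averaged. The binding signal is a within-array Z-score, averaged across arrays of one protein sequence run at different concentrations or buffers and across linkers. A negative Z-score can be read as non-binding.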

[2] = target: Fuc(a1-2)Gal(b1-4)GlcNAc(b1-3)GalNAc
Procedure, shortened: as §1

[3] = target: Fuc(a1-2)Gal(b1-4)GlcNAc(b1-3)[Fuc(a1-2)Gal(b1-4)GlcNAc(b1-6)]GalNAc
Procedure, shortened: as §1

[4] = target: Fuc(a1-2)Gal(b1-4)GlcNAc(b1-3)[Fuc(a1-3)[Gal(b1-4)]GlcNAc(b1-6)]Gal(b1-4)Glc
Procedure, shortened: as §1

[5] = target: Fuc(a1-2)Gal(b1-4)GlcNAc(b1-6)GalNAc
Procedure, shortened: as §1

[6] = target: Fuc(a1-2)Gal(b1-4)GlcNAc6S
Procedure, shortened: as §1

[7] = target: Fuc(a1-2)Gal(b1-4)[Fuc(a1-3)]GlcNAc
Procedure, shortened: as §1

[8] = target: Fuc(a1-2)Gal(b1-4)[Fuc(a1-3)]GlcNAc(b1-2)Man(a1-3)[Fuc(a1-2)Gal(b1-4)[Fuc(a1-3)]GlcNAc(b1-2)Man(a1-6)]Man(b1-4)GlcNAc(b1-4)[Fuc(a1-6)]GlcNAc
Procedure, shortened: as §1

[9] = target: Fuc(a1-2)Gal(b1-4)[Fuc(a1-3)]GlcNAc(b1-2)[Fuc(a1-2)Gal(b1-4)[Fuc(a1-3)]GlcNAc(b1-4)]Man(a1-3)[Fuc(a1-2)Gal(b1-4)[Fuc(a1-3)]GlcNAc(b1-2)Man(a1-6)]Man(b1-4)GlcNAc(b1-4)GlcNAc
Procedure, shortened: as §1

[10] = target: Fuc(a1-2)Gal(b1-4)[Fuc(a1-3)]GlcNAc(b1-3)Gal(b1-4)[Fuc(a1-3)]GlcNAc
Procedure, shortened: as §1

[11] = target: Fuc(a1-2)Gal(b1-4)[Fuc(a1-3)]GlcNAc(b1-3)Gal(b1-4)[Fuc(a1-3)]GlcNAc(b1-3)Gal(b1-4)[Fuc(a1-3)]GlcNAc
Procedure, shortened: as §1

[12] = target: Fuc(a1-2)Gal(b1-4)[Fuc(a1-3)]GlcNAc(b1-3)GalNAc
Procedure, shortened: as §1

[13] = target: Fuc(a1-2)Gal(b1-4)[Fuc(a1-3)]GlcNAc(b1-3)[Neu5Ac(a2-6)Gal(b1-4)GlcNAc(b1-6)]Gal(b1-4)Glc
Procedure, shortened: as §1

[14] = target: Fuc(a1-2)Gal3S(b1-4)GlcNAc
Procedure, shortened: as §1

[15] = target: Fuc(a1-2)Gal6S(b1-3)GlcNAc
Procedure, shortened: as §1

[16] = target: Fuc(a1-2)Gal6S(b1-3)GlcNAc6S
Procedure, shortened: as §1

Fuc(a1-2)Gal6S(b1-4)Glc = target: Fuc(a1-2)Gal6S(b1-4)Glc
Procedure, shortened: as §1

[17] = target: Fuc(a1-2)Gal6S(b1-4)Glc6S
Procedure, shortened: as §1

Fuc(a1-2)[Gal(a1-3)]Gal = target: Fuc(a1-2)[Gal(a1-3)]Gal
Procedure, shortened: as §1

[18] = target: Fuc(a1-2)[Gal(a1-3)]Gal(b1-3)GalNAc
Procedure, shortened: as §1

[19] = target: Fuc(a1-2)[Gal(a1-3)]Gal(b1-3)GalNAc(b1-3)Gal(a1-4)Gal(b1-4)Glc
Procedure, shortened: as §1

[20] = target: Fuc(a1-2)[Gal(a1-3)]Gal(b1-3)GlcNAc
Procedure, shortened: as §1

[21] = target: Fuc(a1-2)[Gal(a1-3)]Gal(b1-3)GlcNAc(b1-2)Man(a1-3)[Fuc(a1-2)[Gal(a1-3)]Gal(b1-3)GlcNAc(b1-2)Man(a1-6)]Man(b1-4)GlcNAc(b1-4)GlcNAc
Procedure, shortened: as §1

[22] = target: Fuc(a1-2)[Gal(a1-3)]Gal(b1-3)GlcNAc(b1-2)Man(a1-3)[Fuc(a1-2)[Gal(a1-3)]Gal(b1-3)GlcNAc(b1-2)Man(a1-6)]Man(b1-4)GlcNAc(b1-4)[Fuc(a1-6)]GlcNAc
Procedure, shortened: as §1

[23] = target: Fuc(a1-2)[Gal(a1-3)]Gal(b1-3)GlcNAc(b1-3)GalNAc
Procedure, shortened: as §1

[24] = target: Fuc(a1-2)[Gal(a1-3)]Gal(b1-3)GlcNAc(b1-6)GalNAc
Procedure, shortened: as §1

[25] = target: Fuc(a1-2)[Gal(a1-3)]Gal(b1-4)Glc
Procedure, shortened: as §1

[26] = target: Fuc(a1-2)[Gal(a1-3)]Gal(b1-4)GlcNAc
Procedure, shortened: as §1

[27] = target: Fuc(a1-2)[Gal(a1-3)]Gal(b1-4)GlcNAc(b1-2)Man
Procedure, shortened: as §1

[28] = target: Fuc(a1-2)[Gal(a1-3)]Gal(b1-4)GlcNAc(b1-2)Man(a1-3)[Fuc(a1-2)[Gal(a1-3)]Gal(b1-4)GlcNAc(b1-2)Man(a1-6)]Man(b1-4)GlcNAc(b1-4)GlcNAc
Procedure, shortened: as §1

[29] = target: Fuc(a1-2)[Gal(a1-3)]Gal(b1-4)GlcNAc(b1-2)Man(a1-3)[Fuc(a1-2)[Gal(a1-3)]Gal(b1-4)GlcNAc(b1-2)Man(a1-6)]Man(b1-4)GlcNAc(b1-4)[Fuc(a1-6)]GlcNAc
Procedure, shortened: as §1

[30] = target: Fuc(a1-2)[Gal(a1-3)]Gal(b1-4)GlcNAc(b1-3)GalNAc
Procedure, shortened: as §1

[31] = target: Fuc(a1-2)[Gal(a1-3)]Gal(b1-4)GlcNAc(b1-3)[Fuc(a1-2)[Gal(a1-3)]Gal(b1-4)GlcNAc(b1-6)]GalNAc
Procedure, shortened: as §1

[32] = target: Fuc(a1-2)[Gal(a1-3)]Gal(b1-4)GlcNAc(b1-6)GalNAc
Procedure, shortened: as §1

[33] = target: Fuc(a1-2)[Gal(a1-3)]Gal(b1-4)[Fuc(a1-3)]Glc
Procedure, shortened: as §1

[34] = target: Fuc(a1-2)[Gal(a1-3)]Gal(b1-4)[Fuc(a1-3)]GlcNAc
Procedure, shortened: as §1

[35] = target: Fuc(a1-2)[Gal(a1-3)]Gal(b1-4)[Fuc(a1-3)]GlcNAc(b1-3)GalNAc
Procedure, shortened: as §1

B1: GS13846A-bth-444-19-444 (Bacteroides thetaiotaomicron) (protein)
chain: SCENEFDVSDKADSLISVTVNTLNNQAAYNVGETAQAELWIQRGGLKDASGKVQFVVDPLLLDSLNQEDKTNYELLPENCYEMTNTEFTVDKNELCGYITYHPEKILALSAYNETKYVLPLRLISNDLAINPARNTSFLAFTILEPIVHISNAGVYNINPDLTSTMDIQIGVPFTNKWDILCNLTEDLSLIDEYNQINKVNFTLLPENAYTAPESVTLQEGVSQITASYQLKNNLVPGNYILPIKIGSITASQGGVPNNSLVIDEESNVLFCIVKEGNKINKSGWEVIECSSEHAGNEATYMIDDNESTYWHCKFKNEAGSSVPPFHFIIDMKKEITIAQIDLLNRGDGAANNIKWVEFYASNNNSEWDKIGAGDFNDEGTRATFRYYVKSTKARYLKLIIPEGYGNNCPPAAIRELTVYGLEGNN
glycan array binding signal (z-score) [1]: -0.209
glycan array binding signal (z-score) [2]: -0.202
glycan array binding signal (z-score) [3]: -0.213
glycan array binding signal (z-score) [4]: 0.069
glycan array binding signal (z-score) [5]: -0.394
glycan array binding signal (z-score) [6]: -0.349
glycan array binding signal (z-score) [7]: -0.321
glycan array binding signal (z-score) [8]: -0.105
glycan array binding signal (z-score) [9]: -0.407
glycan array binding signal (z-score) [10]: 0.013
glycan array binding signal (z-score) [11]: -0.101
glycan array binding signal (z-score) [12]: 2.24
glycan array binding signal (z-score) [13]: -0.216
glycan array binding signal (z-score) [14]: 0.574
glycan array binding signal (z-score) [15]: -0.259
glycan array binding signal (z-score) [16]: 0.009
glycan array binding signal (z-score) (Fuc(a1-2)Gal6S(b1-4)Glc): -0.234
glycan array binding signal (z-score) [17]: -0.431
glycan array binding signal (z-score) (Fuc(a1-2)[Gal(a1-3)]Gal): -0.39
glycan array binding signal (z-score) [18]: -0.119
glycan array binding signal (z-score) [19]: -0.362
glycan array binding signal (z-score) [20]: -0.41
glycan array binding signal (z-score) [21]: -0.305
glycan array binding signal (z-score) [22]: -0.256
glycan array binding signal (z-score) [23]: -0.554
glycan array binding signal (z-score) [24]: -0.104
glycan array binding signal (z-score) [25]: -0.33
glycan array binding signal (z-score) [26]: -0.11
glycan array binding signal (z-score) [27]: -0.519
glycan array binding signal (z-score) [28]: -0.034
glycan array binding signal (z-score) [29]: 0.056
glycan array binding signal (z-score) [30]: -0.247
glycan array binding signal (z-score) [31]: -0.093
glycan array binding signal (z-score) [32]: -0.488
glycan array binding signal (z-score) [33]: 0.113
glycan array binding signal (z-score) [34]: -0.427
glycan array binding signal (z-score) [35]: -0.166
